Laboratory results published in PubChem BioAssay AID1347070 (National Center for Advancing Translational Sciences (NCATS), 2019).
Out of some 94,000 compounds screened, about 20 (0.02%) were called active. This list was built around the results that the source calls inconclusive (neither active nor inactive); the mix of calls is not that of the screen. Calls come from the whole dose curve; as a rule, active = well fitted activation curve with a large enough effect; inconclusive = small, poorly fitted or top-dose-only effect; inactive = flat fitted curve, though single readings scatter. Potencies of inconclusive entries are left out as doubtful fits.

Assay: qHTS of alpha-syn Inhibitors: NCGC Sytravon Library Screen; for growth rescue (activation): 0% is about no effect
Details: S. cerevisiae alpha-synuclein toxicity rescue, BacTiter-Glo growth, 24 h; growth rescue (activation): at 46.1 µM (top of the series)
Method in brief: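 Growth restoration measured by BacTiter-Glo luminescence after 24 hr at 30 deg C; alpha-synuclein yeast, raffinose-pregrown to mid-log, were added at OD600=0.02 in galactose medium onto pinned compounds.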
Potency is the fitted concentration of half-maximal effect; tags give direction and shape of the fitted curve.

Question: Which growth rescue (activation) does the source give for `O=C(CC1CC2CCC1C2)Nc1nc(-c2ccccn2)cs1` (stereo not drawn) here?
Answer: inconclusive: 140% [activator]

Question: For `CCOC(=O)c1cc(NC(=O)C2C3C=CC(O3)C2C(=O)O)cc(C(=O)OCC)c1` (stereo not drawn), which growth rescue (activation) is on record?
Answer: inconclusive: 57.1% [activator]

Question: For `CC(C)Sc1ncc(Cl)c(C(=O)Nc2ccc(S(=O)(=O)N3CCCCC3)cc2)n1`, which “growth rescue (activation)” value is on record?
Answer: inactive: -3.18%

Question: For `Cc1ccc(C)c(-c2ccc(=O)n(Cc3c(F)cccc3Cl)n2)c1`, which growth rescue (activation) is on record?
Answer: inconclusive: 33.6% [activator]

Question: Which Potency does the source give for `Cc1cccc(C)c1NC(=O)CS(=O)(=O)c1nc(-c2ccc(Cl)cc2)cn1-c1ccccc1` here?
Answer: inconclusive [activator, single point]

Question: Which Potency does the source give for `CCCCN(C)CCNC(=O)c1cc2c(=O)n(C)c3ccccc3c2n1C` here?
Answer: inconclusive [activator, single point]

Question: Which “growth rescue (activation)” value does the source give for `CC1(C)CC(=O)c2cc(-c3nc(-c4ccc(F)cc4)cs3)c(=O)[nH]c2C1` here?
Answer: inactive: 2.18%

Question: For `COc1ccc2sc(N(Cc3cccnc3)C(=O)CCc3ccccc3)nc2c1`, which Potency is on record?
Answer: inconclusive [activator, single point]

Question: For `CCOC(=O)N1CCC(N(CCN(C)C)C(=S)Nc2ccc(Oc3ccccc3)cc2)CC1`, which growth rescue (activation) is on record?
Answer: inconclusive: 86.1% [activator]

Question: With `COc1ccc(-c2nc3scc(CCNS(=O)(=O)c4c(C)cc(C)cc4C)n3n2)cc1OC` as the compound, how does the Potency read?
Answer: inconclusive [activator, single point]

Question: For `COc1ccc(-c2nc(Cn3c(=O)cc(-c4ccccc4)c4c(C)nn(C)c43)c(C)o2)cc1OC`, which “growth rescue (activation)” value is on record?
Answer: inactive: -14.8%

Question: With `CCOc1ccc(C(=O)Nc2ccc(NC(=O)c3ccccc3)cc2)cc1Br` as the compound, how does the Potency read?
Answer: inconclusive [activator, single point]

Question: With `CCc1ccccc1NC(=O)N1CCc2c([nH]c3ccccc23)C1c1ccc(C)cc1` (stereo not drawn) as the compound, how does the “growth rescue (activation)” value read?
Answer: inactive: -6.86%

Question: Which Potency does the source give for `COCCNC(=O)C1CCN(c2nc3ccccc3nc2C(F)(F)F)CC1` here?
Answer: inconclusive [activator, single point]

Question: For `CCc1ccc(NS(=O)(=O)c2c(C)nc3sc(CC)nn3c2=O)cc1`, which Potency is on record?
Answer: inconclusive [activator, single point]

Question: With `COc1ccc(-c2ccc(NS(=O)(=O)c3cccc(C)c3)cc2)nn1` as the compound, how does the Potency read?
Answer: inconclusive [activator, single point]

Question: Which “growth rescue (activation)” value does the source give for `CCCCNS(=O)(=O)c1ccc(C)c(-c2nnc3c4ccccc4c(C)nn23)c1` here?
Answer: inactive: 4.28%

Question: With `CCOC(=O)c1ccccc1NC(=O)COc1ccccc1-c1nnc(-c2ccccc2)o1` as the compound, how does the Potency read?
Answer: inconclusive [activator, single point]

Question: For `Cc1ccc(Cn2ccnc2SCC(=O)Nc2nc3ccccc3s2)cc1`, which Potency is on record?
Answer: inconclusive [activator, single point]

Question: For `CC(=O)Nc1ccccc1NC(=O)c1cc(C)cc(C)c1`, which “growth rescue (activation)” value is on record?
Answer: inactive: 4.72%

Question: Which growth rescue (activation) does the source give for `Cc1nc(-c2ccccc2)sc1CCNC(=O)C(=O)Nc1ccc2c(c1)OCO2` here?
Answer: inconclusive: 30.1% [activator]

Question: For `O=P(C(=S)Nc1ccccc1Cl)(c1ccccc1)c1ccccc1`, which growth rescue (activation) is on record?
Answer: inconclusive: 104% [activator]

Question: With `CCCCn1c2ccccc2c2nnc(SCC(=O)Nc3ccc(NC(C)=O)cc3)nc21` as the compound, how does the “growth rescue (activation)” value read?
Answer: inactive: -1.38%

Question: For `O=[N+]([O-])c1ccc(Oc2ccc(S(=O)(=O)Nc3ccccc3)cc2)cc1`, which growth rescue (activation) is on record?
Answer: inconclusive: 109% [activator]

Question: For `COc1cccc(OCc2nc3ccccc3n2Cc2ccccc2C)c1`, which Potency is on record?
Answer: inconclusive [activator, single point]

Question: Which Potency does the source give for `Cc1cc(C)c(NS(=O)(=O)c2ccc(-c3cnc(C4CC4)o3)cc2)c(C)c1` here?
Answer: inconclusive [activator, single point]

Question: Which Potency does the source give for `Cc1cccc(N2CCN(C(=O)c3ccc(CS(=O)c4cccc(Cl)c4)o3)CC2)c1C` (stereo not drawn) here?
Answer: inconclusive [activator, single point]

Question: Which “growth rescue (activation)” value does the source give for `COc1ccccc1-n1ncc2c(=O)[nH]c(SCC(=O)Nc3ccc(Cl)cc3)nc21` here?
Answer: inactive: 1.65%

Question: Which “growth rescue (activation)” value does the source give for `COc1ccc(CCNC(=O)c2ccc3c(c2)c(C)c(C)n3Cc2ccc(F)cc2)c(OC)c1OC` here?
Answer: inactive: -6.28%

Question: With `COc1ccc(Cl)cc1NS(=O)(=O)c1ccc2[nH]c3c(c2c1)CCCC3` as the compound, how does the Potency read?
Answer: inconclusive [activator, single point]

Question: For `CCN(CC(=O)NCc1ccc(F)cc1)C(=O)c1cc2ccccc2o1`, which growth rescue (activation) is on record?
Answer: inconclusive: 50.8% [activator]

Question: With `COc1cccc(NC(CNS(=O)(=O)c2ccc(Cl)cc2)c2ccccc2)c1` (stereo not drawn) as the compound, how does the “growth rescue (activation)” value read?
Answer: inactive: -9.92%

Question: With `CCOC(=O)c1c(C)c(-c2ccccc2)n(CC(=O)NC2CCCCCC2)c1C` as the compound, how does the “growth rescue (activation)” value read?
Answer: inactive: 0.161%

Question: With `Cc1c(C(=O)N(Cc2cccc(F)c2)C2CCS(=O)(=O)C2)oc2cc(Br)ccc12` (stereo not drawn) as the compound, how does the Potency read?
Answer: inconclusive [activator, single point]

Question: With `COc1ccc(Cl)cc1NC(=O)Cn1cnc2c1c(=O)n(C)c(=O)n2C` as the compound, how does the “growth rescue (activation)” value read?
Answer: inactive: -3.57%

Question: Which “growth rescue (activation)” value does the source give for `Cc1ccc([N+](=O)[O-])cc1S(=O)(=O)N1CCn2cccc2C1c1ccccc1F` (stereo not drawn) here?
Answer: inactive: 27%

Question: Which “growth rescue (activation)” value does the source give for `O=c1c2oc3ccccc3c2n(Cc2cccc(Cl)c2)c(=O)n1Cc1ccco1` here?
Answer: inactive: -12%

Question: For `O=C(Nc1ccc(F)c(F)c1)c1cc(S(=O)(=O)NC2CCCCCC2)ccc1F`, which Potency is on record?
Answer: inconclusive [activator, single point]

Question: Which growth rescue (activation) does the source give for `COc1ccc(Br)cc1C1CC(=O)N2CN(C)CSC2=C1C#N` (stereo not drawn) here?
Answer: inconclusive: 54.9% [activator]

Question: For `CCCCn1c(CNC(=O)c2ccc(OC)cc2)nnc1SCC(=O)Nc1ccccc1`, which “growth rescue (activation)” value is on record?
Answer: inactive: 4.2%

Question: For `CCOC(=O)c1ccc(NC(=S)P(=O)(c2ccccc2)c2ccccc2)cc1`, which growth rescue (activation) is on record?
Answer: inconclusive: 53.4% [activator]

Question: With `CCOc1ccc(N=Nc2ccc(O)c3ncccc23)cc1` as the compound, how does the growth rescue (activation) read?
Answer: inconclusive: 335% [activator]

Question: With `CC(=O)Nc1ccc(S(=O)(=O)Nc2nc3ccccc3nc2Nc2cccc(S(N)(=O)=O)c2)cc1` as the compound, how does the growth rescue (activation) read?
Answer: inconclusive: 39.2% [activator]

Question: With `CC(C)(C)NC(=O)CSc1nc(-c2ccc(F)cc2)cc(C(F)(F)F)n1` as the compound, how does the Potency read?
Answer: inconclusive [activator, single point]

Question: With `COc1cc(Cl)c(C)cc1NC(=O)CCc1nc2cccnc2n1Cc1cccs1` as the compound, how does the Potency read?
Answer: inconclusive [activator, single point]

Question: For `COc1ccc(N(C)C(=O)c2cc3c(s2)-c2c(C)cccc2OC3)c(OC)c1`, which Potency is on record?
Answer: inconclusive [activator, single point]

Question: Which Potency does the source give for `COc1ccc(NC(=O)Cn2nc(C(F)(F)F)c3c2CCCC3)cc1OC` here?
Answer: inconclusive [activator, single point]

Question: With `CC(C)N(Cc1ccccc1)C(=O)c1cc2ccc3cccnc3c2[nH]1` as the compound, how does the Potency read?
Answer: inconclusive [activator, single point]

Question: For `O=C(NCc1ccccc1Cl)c1ccc2c(c1)N(Cc1ccccc1)C(=O)c1ccccc1S2`, which “growth rescue (activation)” value is on record?
Answer: inactive: -5.33%

Question: For `O=C(Cc1csc2ccccc12)NCc1ccc(F)cc1`, which Potency is on record?
Answer: inconclusive [activator, single point]

Question: Which “growth rescue (activation)” value does the source give for `Cc1ccc(O)c(C(CC(=O)NCC2(c3ccccc3)CCCC2)c2ccccc2)c1` (stereo not drawn) here?
Answer: inactive: 15.1%

Question: Which Potency does the source give for `COc1ccc(OC)c(NC(=O)Cc2coc3ccc(C(C)C)cc23)c1` here?
Answer: inconclusive [activator, single point]

Question: For `O=C(NCc1ccc(F)cc1)c1ccc2c(Cl)c3c(nc2c1)CCCC3`, which Potency is on record?
Answer: inconclusive [activator, single point]

Question: With `COc1c(C)cc(S(=O)(=O)NCCc2c(C)[nH]c3ccccc23)c(C)c1C` as the compound, how does the Potency read?
Answer: inconclusive [activator, single point]

Question: With `O=C(CN1CCN(S(=O)(=O)c2cc(Cl)ccc2Cl)CC1)Nc1cccc(F)c1` as the compound, how does the Potency read?
Answer: inconclusive [activator, single point]

Question: For `CCc1ccc(N=C2NC(=O)CC(C(=O)Nc3ccc(OC)cc3)S2)cc1` (stereo not drawn), which “growth rescue (activation)” value is on record?
Answer: inactive: -12%

Question: With `CC(C)C1C(=O)N(Cc2cn(CCC3OCCO3)nn2)CCS(=O)(=O)N1Cc1ccc(-c2ccc(Cl)cc2)cc1` (stereo not drawn) as the compound, how does the growth rescue (activation) read?
Answer: inconclusive: 64.2% [activator]

Question: Which Potency does the source give for `Cc1ccnc(NC(c2ccccc2F)c2ccc3cccnc3c2O)c1` (stereo not drawn) here?
Answer: inconclusive [activator, single point]

Question: With `Cc1ccccc1CCNC(=O)c1cc2ccccn2n1` as the compound, how does the “growth rescue (activation)” value read?
Answer: inactive: -7.55%

Question: With `COc1ccc(C2C=C(c3ccc(C)cc3)Nc3c(C(=O)Nc4ccccc4)cnn32)cc1` (stereo not drawn) as the compound, how does the Potency read?
Answer: inconclusive [activator, single point]

Question: Which Potency does the source give for `CCCCN1C(=O)C(O)(CC(=O)c2ccc(CC)cc2)c2cc(Br)ccc21` (stereo not drawn) here?
Answer: inconclusive [activator, single point]

Question: For `Cc1c(Cl)ccc2sc(N3CCN(C(=O)CCS(=O)(=O)c4ccc(F)cc4)CC3)nc12`, which Potency is on record?
Answer: inconclusive [activator, single point]

Question: With `Cc1ccc2c(Sc3ccc(Cl)cc3)c(C(=O)N3CCCCC3)[nH]c2c1` as the compound, how does the Potency read?
Answer: inconclusive [activator, single point]

Question: With `Cc1ccc(Cl)cc1NC(=O)CCC(=O)N1CC(C)Sc2ccccc21` (stereo not drawn) as the compound, how does the Potency read?
Answer: inconclusive [activator, partial curve]

Question: Which Potency does the source give for `CCn1c2c(c(=O)n3ncc(C(=O)Nc4cc(Cl)ccc4C)c13)CN(Cc1ccc(OC)cc1)CC2` here?
Answer: inconclusive [activator, single point]

Question: Which growth rescue (activation) does the source give for `CCCCCC(=O)N1C[C@@H](O)[C@H](n2cc(-c3ccc(F)cc3)nn2)C[C@@H]1c1ccc(Cl)cc1` here?
Answer: inconclusive: 32.1% [activator]

Question: Which Potency does the source give for `CC(=O)C1=C(OC(=O)C(C)C)c2ccccc2S(=O)(=O)N1Cc1ccccc1` here?
Answer: inconclusive [activator, single point]

Question: For `O=C(CSc1ccc(-c2ccccn2)nn1)Nc1ccc(F)c(F)c1`, which Potency is on record?
Answer: inconclusive [activator, single point]
